Assay results: the supplement of paper PMC3334620
Over roughly 33,000 sequences, “E-score (-0.5 to 0.5)” has its median near -0.032; the highest 2% begin near 0.36. This is one part of the list.

These sequences were tested against T1, Sko1 (UniProt Q02100) (assay: PBM E-score (8-mer binding enrichment) (E-score (-0.5 to 0.5)); higher = stronger / more preferred TF binding; most listed sequences are background and not binding sites). Details: protein concentration: 200 nM; construct: GST-full length.
T1 sequence: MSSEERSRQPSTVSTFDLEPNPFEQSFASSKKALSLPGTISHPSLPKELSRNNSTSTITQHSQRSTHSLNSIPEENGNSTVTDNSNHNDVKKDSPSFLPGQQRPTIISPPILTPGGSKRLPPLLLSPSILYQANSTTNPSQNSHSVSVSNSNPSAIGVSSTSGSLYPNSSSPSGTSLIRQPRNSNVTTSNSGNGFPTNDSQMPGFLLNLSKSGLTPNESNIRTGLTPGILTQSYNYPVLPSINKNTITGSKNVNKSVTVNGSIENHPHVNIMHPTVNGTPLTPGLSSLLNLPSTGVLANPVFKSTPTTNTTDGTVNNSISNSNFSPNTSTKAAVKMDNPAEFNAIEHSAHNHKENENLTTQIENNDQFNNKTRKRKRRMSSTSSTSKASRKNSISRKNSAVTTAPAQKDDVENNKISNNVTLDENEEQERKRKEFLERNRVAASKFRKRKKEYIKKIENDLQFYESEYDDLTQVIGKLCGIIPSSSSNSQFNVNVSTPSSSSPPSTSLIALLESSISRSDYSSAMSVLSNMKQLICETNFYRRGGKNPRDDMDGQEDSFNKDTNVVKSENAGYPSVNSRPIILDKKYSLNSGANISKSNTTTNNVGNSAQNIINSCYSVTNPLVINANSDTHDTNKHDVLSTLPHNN
Outline: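 For each ungapped eight-base word taken together with its reverse complement, the Universal PBM Analysis Suite assigned an E-score. Binding data came from GST-tagged yeast transcription factors, applied at about 100-200 nM, on universal all-10-mer Agilent arrays made double-stranded by primer extension. Fluorescent anti-GST marked bound protein, and scans were normalised with masliner.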

Compared with GTCTCAAA, GATTCACA is higher in “PBM E-score” value: -0.0308 for the first, -0.00555 for the second.

First: AAAACCTG
Second: GTAGGGAA
The “PBM E-score” value of the first is lower: -0.0505 for the first, 0.0485 for the second.

Going from GTGGCTGA to ACAGCTTC, the “PBM E-score” value rises from -0.163 to -0.00448.

First: GTCTTACA
Second: CAAACACC
The “PBM E-score” value of the first is higher: 0.131 for the first, -0.0368 for the second.

First: ATTCCGGC
Second: CAATCTGC
The “PBM E-score” value of the first is lower: -0.233 for the first, 0.0715 for the second.

First: CAGCGTCC
Second: GATGAGTA
The “PBM E-score” value of the first is lower: -0.0679 for the first, 0.185 for the second.

Going from CTCTAAGA to GACTCAAA, the “PBM E-score” value rises from -0.132 to 0.0131.

Going from CCACTTAG to CCTGCCCC, the “PBM E-score” value falls from -0.156 to -0.321.

Compared with AACGCTCA, CTATTATC is higher in “PBM E-score” value: -0.0197 for the first, 0.176 for the second.

Going from AGTCCATC to TATCGGAA, the “PBM E-score” value rises from -0.178 to -0.0384.

Going from AATCCCAG to CTAGCGAC, the “PBM E-score” value rises from -0.126 to -0.0684.

Going from GTCGCTTA to GTGCCCTA, the “PBM E-score” value falls from -0.0835 to -0.19.

First: CGTCGCGA
Second: AACATGAC
The “PBM E-score” value of the first is lower: 0.118 for the first, 0.255 for the second.

Going from ACCTGGCT to TCGGCTCA, the “PBM E-score” value rises from -0.232 to -0.111.

First: GAGTACGA
Second: GCCATGGA
The “PBM E-score” value of the first is higher: 0.0447 for the first, -0.11 for the second.

Compared with GCAGTATA, AGACTGAT is higher in “PBM E-score” value: -0.139 for the first, -0.0788 for the second.

Compared with GGTCGGTA, CGGGGGCC is lower in “PBM E-score” value: -0.153 for the first, -0.388 for the second.

First: CACTCTGC
Second: GTCCGTGA
The “PBM E-score” value of the first is higher: 0.0367 for the first, 0.0146 for the second.

Going from CGTCAAGC to CAAGAAGG, the “PBM E-score” value falls from 0.191 to -0.0459.

Compared with AATGTTCA, GTGGACCA is lower in “PBM E-score” value: 0.0405 for the first, -0.196 for the second.

First: GATTGCCC
Second: CGTTTGTC
The “PBM E-score” value of the first is lower: -0.125 for the first, 0.199 for the second.

Compared with ACTGCTTC, CTAACCAC is higher in “PBM E-score” value: -0.104 for the first, 5e-05 for the second.

Compared with AGGACTAG, GATGCACC is lower in “PBM E-score” value: -0.0388 for the first, -0.14 for the second.

First: TTCAAGAA
Second: CCGAATGC
The “PBM E-score” value of the first is higher: 0.16 for the first, -0.0903 for the second.

Going from TCCTAGCA to GGTTGTAA, the “PBM E-score” value rises from -0.208 to -0.0192.

Going from CGGGCCGA to GCGGGGAA, the “PBM E-score” value rises from -0.282 to -0.201.

Going from CCTTCCCG to GAAGGCCC, the “PBM E-score” value falls from -0.222 to -0.345.

Compared with CTGCCAAG, AGAAAAAG is lower in “PBM E-score” value: -0.0254 for the first, -0.145 for the second.

Going from AGTCAGGA to AGGGAAGC, the “PBM E-score” value falls from -0.0146 to -0.31.

Going from TCGAGAAA to ACATAGCA, the “PBM E-score” value falls from 0.145 to 0.0837.

Going from TAGGAATA to CTATTTAA, the “PBM E-score” value falls from -0.0238 to -0.0906.

First: ACTGCTCG
Second: AGTCTGAG
The “PBM E-score” value of the first is higher: 0.0307 for the first, -0.197 for the second.

Compared with ATCGCGGG, AGTTAAGG is higher in “PBM E-score” value: -0.194 for the first, -0.0877 for the second.

Compared with CTACGTGC, ATTTTATG is lower in “PBM E-score” value: 0.354 for the first, 0.209 for the second.

Going from CCAGTACG to GCAGAAGA, the “PBM E-score” value falls from 0.215 to 0.169.

Compared with AGACATAA, CCGTATAG is lower in “PBM E-score” value: 0.0234 for the first, -0.115 for the second.

Compared with GTCTTTAA, CATTTTCA is lower in “PBM E-score” value: 0.178 for the first, 0.163 for the second.

Compared with ACACTCCC, CAGGAATA is higher in “PBM E-score” value: -0.133 for the first, -0.0275 for the second.

Compared with GGTCCGTA, CCAAGTTA is higher in “PBM E-score” value: -0.222 for the first, -0.0787 for the second.

Compared with TTCCGAAA, ATTTAATC is higher in “PBM E-score” value: 0.0588 for the first, 0.215 for the second.

Compared with TAAGTACA, CGGACCTA is lower in “PBM E-score” value: 0.193 for the first, -0.173 for the second.

Going from GGAATAAA to GGGTCCAA, the “PBM E-score” value falls from 0.0414 to -0.209.

First: ATCATAAA
Second: GGATGGAA
The “PBM E-score” value of the first is higher: 0.175 for the first, -0.197 for the second.

Compared with AATGGCCT, ATCAGCAG is higher in “PBM E-score” value: -0.195 for the first, 0.0541 for the second.

Going from ACAGCGTC to AGGAGCCT, the “PBM E-score” value falls from 0.075 to -0.337.

Going from CACTGGAG to ACATCCGG, the “PBM E-score” value rises from -0.293 to -0.227.

Going from GCTTGGGA to CGGACGCC, the “PBM E-score” value rises from -0.366 to -0.137.

Compared with GGTTCGCA, CTGGCTTA is higher in “PBM E-score” value: -0.211 for the first, -0.0476 for the second.

First: AATTTTAA
Second: AATGAGTA
The “PBM E-score” value of the first is lower: 0.143 for the first, 0.178 for the second.

Compared with ATAGCCAA, GCGGTGCA is lower in “PBM E-score” value: 0.0838 for the first, -0.324 for the second.

Compared with ATTAAATG, CTGTACCC is lower in “PBM E-score” value: 0.273 for the first, -0.24 for the second.

First: GGTAAAGA
Second: CGTCTGAA
The “PBM E-score” value of the first is lower: 0.0235 for the first, 0.155 for the second.

Going from AAATGCCC to ACCTTCCG, the “PBM E-score” value rises from -0.246 to 0.0133.

Compared with CTATTAGC, ACGATTTG is lower in “PBM E-score” value: 0.164 for the first, 0.137 for the second.

Going from AACTGGGT to ATCATTTC, the “PBM E-score” value rises from -0.25 to 0.251.

First: ATACAACG
Second: AGTACAAG
The “PBM E-score” value of the first is higher: 0.25 for the first, -0.141 for the second.

Compared with AACACCAA, ACAGCACG is lower in “PBM E-score” value: 0.109 for the first, 0.0338 for the second.

Going from CGCGTCGA to AAAGGCAC, the “PBM E-score” value falls from 0.0749 to -0.137.

Going from ACTACTCA to ACGTACGT, the “PBM E-score” value rises from 0.0815 to 0.473.

First: CTAAAACC
Second: CGGCCTAG
The “PBM E-score” value of the first is higher: 0.0654 for the first, -0.324 for the second.

Going from ACCGAGCG to ACATACGA, the “PBM E-score” value rises from -0.184 to 0.316.

First: AGTACTGG
Second: ACATCGTA
The “PBM E-score” value of the first is lower: -0.113 for the first, 0.232 for the second.

Going from ATTAAAGA to ATGTTTGC, the “PBM E-score” value falls from 0.24 to 0.00599.

First: TCGTTCCA
Second: GTGATGGA
The “PBM E-score” value of the first is lower: 0.0128 for the first, 0.0311 for the second.

First: TCCGTGCA
Second: ACACAGCG
The “PBM E-score” value of the first is lower: 0.00563 for the first, 0.153 for the second.

First: AGGCCTGG
Second: TAGTCCAA
The “PBM E-score” value of the first is lower: -0.234 for the first, -0.132 for the second.

First: CGTTCCAC
Second: CAACCTTA
The “PBM E-score” value of the first is lower: -0.147 for the first, 0.15 for the second.

Going from ATAGACTC to CTTAATTA, the “PBM E-score” value rises from -0.148 to 0.134.

Compared with CAGACTAC, GAGTAGCA is higher in “PBM E-score” value: -0.0269 for the first, 0.0153 for the second.

Going from CAAGCCAA to ACTCACCT, the “PBM E-score” value falls from 0.046 to -0.132.

Going from AAAGAGCA to GTTACCAA, the “PBM E-score” value rises from 0.107 to 0.113.

Compared with ACAGAGTC, GTTGCTCA is lower in “PBM E-score” value: 0.00649 for the first, -0.0195 for the second.

First: GAGTTTCC
Second: AGCGCCAA
The “PBM E-score” value of the first is lower: -0.217 for the first, -0.154 for the second.

Going from CGGGACAG to CCGAGAGA, the “PBM E-score” value falls from -0.147 to -0.284.

Compared with CGGACAGC, AACTCATA is higher in “PBM E-score” value: -0.127 for the first, -0.00924 for the second.

Going from AGTTATAT to ACGCGCGA, the “PBM E-score” value rises from 0.00967 to 0.109.

First: GTACGAAA
Second: ACTCTAGG
The “PBM E-score” value of the first is higher: 0.331 for the first, -0.155 for the second.

Going from GAACTATA to AGGGCCTG, the “PBM E-score” value falls from -0.00048 to -0.348.

Compared with GAACATTA, ATTGCCTG is lower in “PBM E-score” value: 0.185 for the first, -0.00796 for the second.

Going from CACGGATG to AACTGATG, the “PBM E-score” value rises from -0.081 to 0.0734.

First: CCATCACA
Second: AAGCGCCC
The “PBM E-score” value of the first is higher: -0.0175 for the first, -0.291 for the second.

Compared with AAAGGGTA, TCAAATCA is higher in “PBM E-score” value: -0.0759 for the first, 0.119 for the second.

Going from CGAGTCTA to CAAGGGGA, the “PBM E-score” value rises from -0.162 to -0.0134.

Going from AAAAACCT to CTGCCCGA, the “PBM E-score” value falls from 0.0483 to -0.173.

Going from AGTATTAG to CGGTGACC, the “PBM E-score” value falls from 0.00871 to -0.172.

Compared with AGCAACCA, AAATCGGC is lower in “PBM E-score” value: -0.00225 for the first, -0.191 for the second.
